Experimental findings from article PMC4336329 (PLoS ONE, 2015) are described below.

Molecules are shown by their SMILES. Out of some 310,000 compounds screened, about 14,000 (4.5%) showed an effect of 50% or more. The effect is printed as a negative number. This is one part of the list.
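Also: peak tail current of the secondary pulse compared with the same well before compound.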

Chain of human ether-à-go-go-related gene (hERG) potassium channel (Q12809 whole entry, looked up): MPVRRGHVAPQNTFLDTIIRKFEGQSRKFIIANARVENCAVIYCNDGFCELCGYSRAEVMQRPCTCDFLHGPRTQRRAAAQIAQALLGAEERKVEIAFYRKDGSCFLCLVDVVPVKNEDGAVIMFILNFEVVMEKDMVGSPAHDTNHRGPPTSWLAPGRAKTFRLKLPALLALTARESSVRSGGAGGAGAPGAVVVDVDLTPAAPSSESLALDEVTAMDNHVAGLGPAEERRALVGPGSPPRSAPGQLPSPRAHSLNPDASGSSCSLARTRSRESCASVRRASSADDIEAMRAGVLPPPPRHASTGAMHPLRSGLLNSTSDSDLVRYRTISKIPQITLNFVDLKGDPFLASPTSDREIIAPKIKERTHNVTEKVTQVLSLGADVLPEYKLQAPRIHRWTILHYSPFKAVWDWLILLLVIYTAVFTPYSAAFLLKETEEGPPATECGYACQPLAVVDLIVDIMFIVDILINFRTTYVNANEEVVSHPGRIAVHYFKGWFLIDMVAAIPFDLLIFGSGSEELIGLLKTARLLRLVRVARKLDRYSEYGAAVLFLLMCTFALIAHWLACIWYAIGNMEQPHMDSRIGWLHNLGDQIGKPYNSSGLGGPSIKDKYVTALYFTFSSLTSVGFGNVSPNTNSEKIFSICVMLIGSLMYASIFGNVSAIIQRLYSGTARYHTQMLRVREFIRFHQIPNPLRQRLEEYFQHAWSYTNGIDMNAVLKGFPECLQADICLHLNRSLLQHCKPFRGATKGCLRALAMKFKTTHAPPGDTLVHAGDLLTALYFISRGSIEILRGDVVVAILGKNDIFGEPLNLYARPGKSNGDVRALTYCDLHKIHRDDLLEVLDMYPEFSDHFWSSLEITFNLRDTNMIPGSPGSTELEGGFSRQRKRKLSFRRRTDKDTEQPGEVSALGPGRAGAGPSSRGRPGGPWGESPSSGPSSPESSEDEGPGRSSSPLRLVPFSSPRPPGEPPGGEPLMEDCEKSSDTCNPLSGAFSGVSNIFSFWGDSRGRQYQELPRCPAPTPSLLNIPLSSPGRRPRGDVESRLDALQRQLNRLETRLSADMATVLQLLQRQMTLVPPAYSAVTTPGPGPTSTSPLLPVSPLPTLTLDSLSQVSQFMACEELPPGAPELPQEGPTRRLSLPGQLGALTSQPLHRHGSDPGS

The test concerns the target human ether-à-go-go-related gene (hERG) potassium channel (human, UniProt Q12809). The test is described as follows: primary screen, population patch clamp on CHO cells stably expressing hERG.
As for `CC1CN(C(=S)Nc2cccc([N+](=O)[O-])c2)CC(C)O1` (centres unmarked), the “hERG current change (%, negative = inhibition) at 10uM” value was 2.57%.
The figure for `CCCNCc1cc(OC)c(OCCC)cc1Cl.Cl` is -13.3%.
The result for `Cc1cc2c(ncn2C)c(NS(=O)(=O)c2ccc(F)cc2)c1C` reads 0.6%; that for `O=C(Nc1nc2c(s1)CCCC2)c1cc2n(n1)C(C(F)(F)F)CC(C1CC1)N2` (centres unmarked), 7.66%; that for `CC1=CC(C)(C)NC(=S)N1c1ccc(C)cc1C`, 12.3%.
The result for `COc1ccc2[nH]cc(CCNC(=O)CS(=O)(=O)Cc3ccccc3)c2c1` reads 11.3%; that for `CC12C=CC3(CN(Cc4ccccc4)C(=O)C3C1C(=O)NCc1ccco1)O2` (centres unmarked), 6.06%; that for `CN1CCN(CC(=O)Nc2nc(-c3c[nH]c4ccccc34)cs2)CC1`, -23.9%.
As to `O=c1c2ccccc2nc2n1C(CSCc1ccccc1)CS2` (centres unmarked), the “hERG current change (%, negative = inhibition) at 10uM” value is reported as -37.1%.
As for `Fc1ccc(-c2n[nH]c(=S)n2-c2ccc3c(c2)OCCO3)cc1`, the “hERG current change (%, negative = inhibition) at 10uM” value was found to be 8.44%.
The result for `CCc1nc(SCC(=O)Nc2c(C)n(C)n(-c3ccccc3)c2=O)n[nH]1` reads -13.6%; that for `Cc1ccc(-n2cccn2)cc1`, 46.9%.
As for `COc1ccc(NC(=O)COc2ccccc2C#N)c(S(=O)(=O)N2CCCCC2)c1`, the “hERG current change (%, negative = inhibition) at 10uM” value was -21.8%.
For the compound `Cc1ccc(NC(=O)CSc2cccc[n+]2[O-])c([N+](=O)[O-])c1`, the “hERG current change (%, negative = inhibition) at 10uM” value is listed as 12.2%.
The result for `CSCCNCc1cn(-c2ccc(F)cc2F)nc1-c1ccccc1C` reads -48.7%; that for `CCc1cnccc1CCC(=O)Nc1ccccc1C`, 0.898%; that for `Clc1ccc(SCc2cc(-c3ccccc3)on2)cc1`, 0.436%.
The figure for `CC(=O)c1cccc(NC(=O)CCC(=O)Oc2ccc(C)cc2)c1` is -22%.
The figure for `Cc1ccc([N+](=O)[O-])cc1NC(=O)c1ccc2c(c1)OCO2` is 11.4%.
Consider `O=S(=O)(Nc1nc2ccccc2nc1OCC(F)(F)F)c1cccs1`, for which the “hERG current change (%, negative = inhibition) at 10uM” value was found to be 4.91%.
The result for `Cn1c(=O)c(=O)n(C)c2cc(S(=O)(=O)CCC(=O)Nc3ccc(F)cc3)ccc21` reads -2.6%; that for `Cn1c(SCC(=O)c2ccc3c(c2)OCO3)nnc1C1COc2ccccc2O1` (centres unmarked), -19.8%; that for `FC(F)(F)c1cccc(NC(=S)N2CCCCCC2)c1`, -11.5%.
The figure for `COc1cccc(-c2nnn(CC(=O)Nc3ccc(C)cc3C)n2)c1OC` is -1.38%.
The result for `CC(=O)c1cccc(N2C(=NC(=O)C3CC3)SC3CS(=O)(=O)CC32)c1` (centres unmarked) reads 0.996%.
In the case of `CCOc1ccc(NC(=O)c2ccccc2OCC(=O)c2ccccc2)cc1`, the “hERG current change (%, negative = inhibition) at 10uM” value is given as -3.22%.
The result for `Cc1cccc(N(CC(=O)NCc2ccco2)C(=O)CCC(=O)Nc2nccs2)c1` reads 28.2%; that for `Cc1ccc(OCCCNC2CCCC2)cc1`, -0.454%.
The result for `Cn1c(N)c(C(=O)COC(=O)CSc2ccc3ccccc3c2)c(=O)n(C)c1=O` reads -1.77%.
The result for `CCN(CC)CCN(C(=O)c1ccc2ccccc2c1)c1nc2ccc(F)cc2s1.Cl` reads -12.7%; that for `CC(=O)CCc1c(C)[nH]c2ccccc2c1=O`, 9.69%.
In the case of `Cc1ccc(OCc2nc(-c3ccc(-n4cccc4)cc3)no2)cc1C`, the “hERG current change (%, negative = inhibition) at 10uM” value is reported as -0.988%.
The figure for `COc1ccc(C(=O)Nc2cc(C)on2)cc1OC` is 10%.
The result for `CCOc1ccccc1OCC(=O)Nc1ccc(S(=O)(=O)N(C)C)cc1` reads -18.7%.
In the case of `COc1ccc(N2CCN(C(C)=C3C(=O)c4ccccc4C3=O)CC2)cc1`, the “hERG current change (%, negative = inhibition) at 10uM” value was -53.3%.
With `Cc1ccccc1Oc1ncnc(N)c1[N+](=O)[O-]`, the “hERG current change (%, negative = inhibition) at 10uM” value came out at 11.9%.
The result for `Cc1ccccc1NS(=O)(=O)c1cc(C(=O)N2CCCC2)ccc1C` reads -4.88%.
The result for `O=C(NCc1nnc(SCC(=O)N2CCCCC2)o1)c1ccc(F)cc1` reads 10.2%.
The figure for `COc1ccc(NC(=O)CSc2nc3ccccc3c(=O)n2CCCN2CCC(C)CC2)c(OC)c1` is -81.6%; for `Cc1ccc(NC(=O)CN(Cc2ccco2)Cc2ccccc2O)cc1C` it is 7.36%.
As to `Cn1c(=O)n(C)c2cc(/C=N/NC(N)=S)ccc21`, the “hERG current change (%, negative = inhibition) at 10uM” value amounted to 13.4%.
For the compound `CCn1c(=O)cc(N2CCCCC2)[nH]c1=O`, the “hERG current change (%, negative = inhibition) at 10uM” value was found to be 11%.
Turning to `CC(C(=O)NCC1CCCCC1)N(C)Cc1ccc(Br)cc1` (centres unmarked), the “hERG current change (%, negative = inhibition) at 10uM” value is listed as -2.07%.
The result for `C=CCOc1ccc(C(=O)Nc2ccc(OCC)cc2)cc1` reads 15.3%; that for `O=S(=O)(NC1=NCCCCCC1)c1cccs1`, 3.19%; that for `Cc1ccc(NC(=O)N2C(=O)C3(OCCO3)c3ccccc32)cc1`, 18.2%.
The result for `Cc1cc(C)cc(NC(=O)C(=O)NCCCN2CCOCC2)c1` reads -6.69%.
The figure for `COc1ccc(OCC(=O)c2c[nH]c3ccccc23)cc1` is 17.2%.
Consider `Cc1cc(C)nc(NC(=O)c2c(-c3ccccc3Cl)noc2C)c1`, for which the “hERG current change (%, negative = inhibition) at 10uM” value amounted to 7.1%.
With `Cn1c2ccccc2c(=O)c2cc(C#Cc3ccsc3)ccc21`, the “hERG current change (%, negative = inhibition) at 10uM” value stood at 13.2%.
The result for `CC(C)(C)c1ccc(/C=C2\SC(=O)N(CCNC(=O)c3cccc(S(=O)(=O)N4CCOCC4)c3)C2=O)cc1` reads 27.5%.
The result for `CC(=O)Nc1ccccc1-c1nc2ccccc2nc1OCC(=O)c1ccc(Cl)cc1` reads 5.41%; that for `Cc1ccc(NC(=O)c2ccco2)c(NC(=O)CN2C(=O)c3ccccc3C2=O)c1`, -1.76%; that for `COc1ccc(C)cc1NC(=O)CCCN1C(=O)C2CC=CCC2C1=O` (centres unmarked), -9.54%.
The figure for `O=C(CCCC(=O)NCC1CCCO1)NCC1CCCO1` (centres unmarked) is 1.79%.
In the case of `CCOc1ccccc1C(=O)NCC(=O)N(C)Cc1cccnc1`, the “hERG current change (%, negative = inhibition) at 10uM” value was -3.07%.
The result for `COc1ccc(NS(=O)(=O)c2cc(S(C)(=O)=O)ccc2C)cc1` reads 9.03%; that for `Cc1ccc(C(=O)c2cn(-c3ccc(F)c(Cl)c3)nn2)cc1`, -13.6%.
The figure for `O=C(Nc1ccc(S(=O)(=O)NCCc2ccccc2)cc1)c1ccc(Br)o1` is 8.63%.
